This note sets out measurements from publication PMC12136788.

The other results are listed elsewhere or left out.

First the molecules themselves.
T1: UNK ZnF1-3 (human, UniProt Q9C0B0 31-174)
T1 sequence: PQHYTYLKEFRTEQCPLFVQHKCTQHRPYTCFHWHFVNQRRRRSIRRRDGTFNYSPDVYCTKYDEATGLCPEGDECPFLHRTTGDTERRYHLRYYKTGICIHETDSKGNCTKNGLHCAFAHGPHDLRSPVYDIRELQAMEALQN

B1: 12266551_12270795_3497_CDS_ENSMUSG00000064127_ENSMUST00000096495|mouse|control|control (ssRNA)
RNA: GGGAGUUCUACAGUCCGACGAUCAGCCCCACUGGGGGAGCUGGCAGCAUGCAGAUUUCCUGGAGACUGUGUGUGCAUCAUAGAGGGGGACUGAUUAACUGUGCUGUGAUAGGAUGUAGGGGGUGAAGUAAGAGGGUAAGCGCCCAACAGAGGAUUGAGCAUCA
B2: 178301539_178301754_695_CDS_ENSG00000018510_ENST00000264167|human|control|control (ssRNA)
RNA: GGGAGUUCUACAGUCCGACGAUCCUCAAACAUUCCUUCCCUGAGCAAAAAUAUCUCAUGAAGACAAUGACCAUGAGCUCUAAAUACUCGAUCAUCUGCCUCUUGUGAAUAUGAAAUAUUAGUUUCUUUAAGGUCAUGAAGAAACAACAGAGGAUUGAGCAUCA
B3: chr5:36862001:36862002:-_ENSMUSG00000029192_ENSMUST00000171385|mus_hu|FALSE|FALSE (ssRNA)
RNA: GGGAGUUCUACAGUCCGACGAUCAAUGGCUAAGCUCCAGACUUUGCCUCUCACACUUGGAGGGAUUCCCUGCCACCAUAAAUCUCGAACUUUUCUAGAGCACCACAUUGUUUCCCAGUUAGGUAAGAUCUCAUUAUUCCAGGUCAACAGAGGAUUGAGCAUCA
B4: chr2:47387770:47387771:-_ENSG00000143933_ENST00000272298|hu_mus|hu_hu_hu_mus_True|8_8 (ssRNA)
RNA: GGGAGUUCUACAGUCCGACGAUCAAGGUUUAAGGACAAUGACAGUAAGAUAAGGGAAGAAAACAUGGAGGAAUGAAGUCCUAAUUACUAUACAUGCAUAUUUUUUGACAGUAGGGGGGGGGAACCUUACAGAUAAGAGUUACACAACAGAGGAUUGAGCAUCA
B5: chr17:66519878:66519879:+_ENSG00000108946_ENST00000358598|hu_mus|motif|central (ssRNA)
RNA: GGGAGUUCUACAGUCCGACGAUCACUUCUCUCGUUAUCAUCAAGGUGUGAAAACAGCACAUUCUUUUCGAUGGCCUUGGCGGAAGCAGCCAUUGUCUUAUAAUCUUUUGGAAUAACCUUUCUAACGUAGGAGGCAGCAUCCUCCAACAGAGGAUUGAGCAUCA
B6: chr2:179515052:179515053:+_ENSMUSG00000000305_ENSMUST00000000314|mus_hu|mus_mus_mus_hu_False|58_88 (ssRNA)
RNA: GGGAGUUCUACAGUCCGACGAUCGCUGUCCCAUGCAGUCACCGUGAAGGCCACCUGCUCGGAGGGGACCUGCAGCUCCCUAGUGGCGAAGACUGUCCCAUCUGCCCCAACUUUGAAGUCCAUGCUGUUGGUCUCAUAUUGUGUCAACAGAGGAUUGAGCAUCA
B7: chr12:69047915:69047916:+_ENSG00000127314_ENST00000393436|hu_hu|FALSE|FALSE (ssRNA)
RNA: GGGAGUUCUACAGUCCGACGAUCCUGUUCUCUCAGGUCUUGUAAAUCGUUAAAUGUGGACUGUGCUGUGAUGGAAUAAACUAAUGCAAAUCCUUGUCCAUUUUUCAUGUAUAAAUCCCUCAUUGCUGUAAAUUGCUCCGUUCCCAACAGAGGAUUGAGCAUCA
B8: chr14:76904430:76904431:+_ENSMUSG00000022010_ENSMUST00000022587|mus_mus|mus_mus_mus_hu_True|68_98 (ssRNA)
RNA: GGGAGUUCUACAGUCCGACGAUCUGCAGCCAAAAACAGAGAGAGGGAAAAAAAGAGGGAACACCAGCAGCCUGGUUUAAGCUAGAUAAAAUCUUCUGGCUUUCCGCAGCCCAGGGAGAAACAGAAAACGGCAGCCCUAAUUUACAACAGAGGAUUGAGCAUCA
B9: chr12:39763582:39763583:-_ENSG00000139116_ENST00000544797|hu_mus|hu_hu_hu_mus_False|18_28 (ssRNA)
RNA: GGGAGUUCUACAGUCCGACGAUCCUCUAGGAACUGGGCAUUCACUUUGAAUUCAGGAGGGGGCAGCCCGUUUUUAAUCGCUGAGGUCUUUUUCUCAUCAAUACUCUUAAAAAGGUGUUUAACAGCUCGAGAGAUGAUGCCCUGCAACAGAGGAUUGAGCAUCA
B10: chr4:24541891:24541892:-_ENSG00000109606_ENST00000336812|perfect_dup|FALSE|FALSE (ssRNA)
RNA: GGGAGUUCUACAGUCCGACGAUCGGAUCCCAAUUCAGUCAGAUCUCCAUCAUCAUUUAAAGCAGCCAGGUAAUUCAAAAGUUCCAGGGCUCUCAUCAGAGUUUCAGGAGCUGGUGGAUCCAUAAAAUCAAAAUGUACCAAGUCCAACAGAGGAUUGAGCAUCA
B11: chr21:34922442:34922443:+_ENSG00000159140_ENST00000381679|hu_hu|FALSE|FALSE (ssRNA)
RNA: GGGAGUUCUACAGUCCGACGAUCCUCAGUAGGUGUCUCUGAUGAUACCACAAGGGUUUCUGAAGGCUCUAACACUUUUGCUACUGGGGGCUCUACCAACAUGAUCUUUGAUGGCUCUGGAGAUGUGCUCUCCACAGAUUUCAGCAACAGAGGAUUGAGCAUCA
B12: chr21:27062186:27062187:+_ENSG00000154721_ENST00000480456|hu_mus|FALSE|FALSE (ssRNA)
RNA: GGGAGUUCUACAGUCCGACGAUCUCCCACCUUCUUCCACUCCAGUCUGGAGGAGGUAGUCUUCUUUGGGGUUUUACAAGCCAAAAUAGCCUCUUGGAACUCUAUUACUGUGACUUCUUGACGGUGGUCUUUUGAUGCAGAAAACAACAGAGGAUUGAGCAUCA
B13: chr6:150114721:150114722:+_ENSG00000120265_ENST00000367380|hu_hu|motif|central (ssRNA)
RNA: GGGAGUUCUACAGUCCGACGAUCGUCCUUCCUGACAUUAUUUACUGAGUCAUCUACUAGCUCUUUAAUGUGAUCAAUUCCGGUGACUUUUCCAGUACAUCCAACCAUACGUGCAAAACAUGCAGUAAGGAUUCCACUUCCAGACAACAGAGGAUUGAGCAUCA
B14: 120442357_120442477_4816_3pUTR_ENSG00000151893_ENST00000369151|human|control|control (ssRNA)
RNA: GGGAGUUCUACAGUCCGACGAUCUCACUCUAGACCCCAAAGGGAGGGUAAUUGCUGCAAAUUUGUUAAAGGGACAGAAGAAAAAGUAGCUUGUCUACAAAAUAAUGCACAAUGCAUGCAUCUGGGUUUGUGUUUCUUCUCACUCAACAGAGGAUUGAGCAUCA

In the experiment the target is T1, UNK ZnF1-3. Description: nsRBNS (natural sequence RNA bind-n-seq); RBNS binding buffer (assumed for nsRBNS): 25 mM Tris pH 7.5, 150 mM KCl, 3 mM MgCl2, 0.01% Triton X-100, 500 ug/ml BSA, 20 U/ml SUPERase-In, 4 C; UNK is unkempt and MSI1 is Musashi-1; names of the RNAs are library labels; protein concentration not given here; high values mean tight binding.
For the molecule B1, the binding signal was found to be 2.54 enrichment R. As for B2, the figure is 1 enrichment R; as for B3, 1.16 enrichment R; as for B4, 2.53 enrichment R. In the case of B5 it was 0.998 enrichment R. In the case of B6 it was 0.823 enrichment R; in that of B7, 1.12 enrichment R; in that of B8, 3.22 enrichment R. As for B9, the binding signal was determined as 2.43 enrichment R.

With B10, the binding signal came out at 1.58 enrichment R. In the case of B11 it was 0.489 enrichment R; in that of B12, 0.732 enrichment R; in that of B13, 1.06 enrichment R.

On to B14, for which the binding signal is 1.69 enrichment R.
